Test results reported in publication PMC4336329 (PLoS ONE, 2015).
About 14,000 (4.5%) of roughly 310,000 compounds showed an effect of 50% or more. Effects have a minus sign here. Some of the results follow.

The compounds below were run against human ether-à-go-go-related gene (hERG) potassium channel (human, UniProt Q12809) (assay: primary screen, population patch clamp on CHO cells stably expressing hERG).
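Further: peak tail current of the secondary pulse compared with the same well before compound.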

Sequence of human ether-à-go-go-related gene (hERG) potassium channel (Q12809 whole entry, looked up): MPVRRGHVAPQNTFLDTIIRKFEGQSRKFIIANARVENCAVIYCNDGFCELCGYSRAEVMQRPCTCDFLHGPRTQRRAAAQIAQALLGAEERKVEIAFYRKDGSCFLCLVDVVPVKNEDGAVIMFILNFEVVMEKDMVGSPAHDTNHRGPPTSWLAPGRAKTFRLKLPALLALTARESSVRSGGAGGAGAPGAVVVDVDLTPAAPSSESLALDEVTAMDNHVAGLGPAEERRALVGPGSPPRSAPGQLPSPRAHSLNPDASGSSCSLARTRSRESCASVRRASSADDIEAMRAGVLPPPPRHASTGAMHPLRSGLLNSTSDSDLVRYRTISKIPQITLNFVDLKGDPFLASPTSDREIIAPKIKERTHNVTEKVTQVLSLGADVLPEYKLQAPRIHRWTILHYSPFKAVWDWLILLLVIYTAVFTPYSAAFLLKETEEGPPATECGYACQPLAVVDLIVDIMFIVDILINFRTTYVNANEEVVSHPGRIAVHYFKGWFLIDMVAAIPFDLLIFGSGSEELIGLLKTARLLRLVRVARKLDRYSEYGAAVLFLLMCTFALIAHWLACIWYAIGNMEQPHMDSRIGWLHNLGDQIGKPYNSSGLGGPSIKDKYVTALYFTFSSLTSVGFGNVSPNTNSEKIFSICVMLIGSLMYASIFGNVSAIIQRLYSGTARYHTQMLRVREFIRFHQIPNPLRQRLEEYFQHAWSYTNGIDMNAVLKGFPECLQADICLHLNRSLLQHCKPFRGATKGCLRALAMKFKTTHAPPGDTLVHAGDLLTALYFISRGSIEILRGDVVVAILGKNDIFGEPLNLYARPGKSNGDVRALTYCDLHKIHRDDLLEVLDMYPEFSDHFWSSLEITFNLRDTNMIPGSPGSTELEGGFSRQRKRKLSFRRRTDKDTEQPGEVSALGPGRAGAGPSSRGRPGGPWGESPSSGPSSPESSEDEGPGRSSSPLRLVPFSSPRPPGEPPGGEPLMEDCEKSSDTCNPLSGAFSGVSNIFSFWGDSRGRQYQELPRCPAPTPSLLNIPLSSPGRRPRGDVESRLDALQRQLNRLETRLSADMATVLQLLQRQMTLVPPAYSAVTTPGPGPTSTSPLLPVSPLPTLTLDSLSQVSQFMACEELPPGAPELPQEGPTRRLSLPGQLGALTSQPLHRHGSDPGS

First: CCOc1ccc(NC(=O)CC2C(=O)N(c3ccc(OCC)cc3)C(=S)N2C2CC2)cc1 (centres unmarked)
Second: CC(C)c1ccc(NC(=O)CNC(=O)Cn2cnc3ccccc3c2=O)cc1
The “hERG current change (%, negative = inhibition) at 10uM” value of the first is higher: 15.2% for the first, 3.21% for the second.

Going from `COc1ccc(OC)c(CCNC(=O)CN2C(=O)CCSc3ccccc32)c1` to `COc1ccc(NC(=O)CN2C(=O)COc3ccccc32)cc1OC`, the “hERG current change (%, negative = inhibition) at 10uM” value rises from -0.0631% to 17.8%.

Compared with `Cl.N=c1n(CCCOc2ccccc2Cl)c2ccccc2n1CC(N)=O`, `O=C(CCCc1ccccc1)NCCCc1ccccc1` is lower in “hERG current change (%, negative = inhibition) at 10uM” value: 3.98% for the first, -10.9% for the second.

Compared with `O=c1[nH]c2cc(NCCO)c([N+](=O)[O-])cc2[nH]1`, `CCCOc1ccc(C(=O)Nc2c[nH]c(=O)[nH]c2=O)cc1` is lower in “hERG current change (%, negative = inhibition) at 10uM” value: 17.8% for the first, -6.41% for the second.

Compared with `CCc1cc2ccc(C)cc2nc1SCC(=O)NC1CCCC1`, `CCc1cccc(NC(=O)C2CCN(S(=O)(=O)c3c(C)noc3C)CC2)c1` is lower in “hERG current change (%, negative = inhibition) at 10uM” value: 13% for the first, -5.55% for the second.

Going from `CCOC(=O)C1CCN(C(=O)COc2ccc(Br)cc2C)CC1` to `CCOC(=O)c1c(C)n(CCO)c2ccc(O)cc12`, the “hERG current change (%, negative = inhibition) at 10uM” value rises from -19.3% to 5.86%.

First: CCC1(C)Cc2ccccc2-c2nc3n(c(=O)c21)CCCCC3 (centres unmarked)
Second: CCCn1c(N)c(N2CCCCC2)c(=O)n(CC(=O)Nc2ccccc2)c1=O
The “hERG current change (%, negative = inhibition) at 10uM” value of the first is lower: -24% for the first, 3.95% for the second.

Going from `Cc1ccc2cccc(N)c2n1` to `C=C(C)CNC(=S)Nc1cccc2cnccc12`, the “hERG current change (%, negative = inhibition) at 10uM” value rises from 0.482% to 15.7%.

First: Cn1cccc1C(=O)NNC(=O)COc1ccc(Br)cc1
Second: CC(C)(C)n1cnc2cc(NCc3ccc(Br)cc3)ccc21
The “hERG current change (%, negative = inhibition) at 10uM” value of the first is higher: 11.8% for the first, -69.2% for the second.

First: CC(=O)Nc1ccc(S(=O)(=O)NC2=NCN(CCOC(=O)c3ccccc3)CN2)cc1
Second: Cc1ccc(S(=O)(=O)NCC(=O)OCN2C(=O)c3ccccc3C2=O)cc1
The “hERG current change (%, negative = inhibition) at 10uM” value of the first is higher: 6.73% for the first, 5.91% for the second.

Compared with `COc1cc(/C=N/NC(=O)c2ccc([N+](=O)[O-])cc2Cl)cc(Br)c1O`, `COc1ccc(/C=N\NC(=O)C2COc3ccccc3O2)cc1O` (centres unmarked) is lower in “hERG current change (%, negative = inhibition) at 10uM” value: 2.77% for the first, -15.4% for the second.

Compared with `CCOc1ccc(C(C)NC(=O)c2cccnc2OCC)cc1OCC` (centres unmarked), `COc1ccc(S(=O)(=O)NCc2ccccn2)cc1NC(=O)c1ccccc1C` is higher in “hERG current change (%, negative = inhibition) at 10uM” value: -2.29% for the first, -1.41% for the second.

Compared with `COc1ccc(C(CNC(=O)c2cccc(S(=O)(=O)Nc3ccccc3OC)c2)N2CCOCC2)cc1` (centres unmarked), `COc1ccccc1NC(=O)C1CCCN(S(=O)(=O)c2ccccc2)C1` (centres unmarked) is higher in “hERG current change (%, negative = inhibition) at 10uM” value: -46.1% for the first, 1.7% for the second.

Compared with `O=C(CCCc1cccs1)Nc1nccs1`, `CSc1ccccc1C(=O)Nc1nccs1` is lower in “hERG current change (%, negative = inhibition) at 10uM” value: 38.7% for the first, -4.93% for the second.

Going from `O=C(Cc1ccccc1[N+](=O)[O-])N1CCN(S(=O)(=O)c2ccccc2)CC1` to `O=C(Nc1cc(S(=O)(=O)N2CCCCC2)ccc1Cl)C1=NN(c2ccccc2)C(=O)CC1`, the “hERG current change (%, negative = inhibition) at 10uM” value rises from -9.19% to 12.6%.

First: COc1cccc(-n2c(SCC(=O)NCCC3=CCCCC3)nc3n[nH]c(C)c3c2=N)c1
Second: COc1ccc(OC)c(NC(=O)CSc2nc3n[nH]c(C)c3c(=N)n2-c2cccc(Cl)c2C)c1
The “hERG current change (%, negative = inhibition) at 10uM” value of the first is lower: -58.9% for the first, -12.7% for the second.

Going from `C/C(=N\N1CCCCC1)c1c(O)[nH]c(=O)[nH]c1=O` to `Cc1ccc(S(=O)(=O)Cc2ccc(C(=O)N3CCCCCC3)o2)cc1`, the “hERG current change (%, negative = inhibition) at 10uM” value falls from -11% to -15.4%.

First: C[C@H](NC(=O)N1CCn2c1nc1ccccc12)C(=O)N1CCCCC1
Second: O=C(N/C(=C/c1cccc([N+](=O)[O-])c1)C(=O)N1CCCCC1)c1cccs1
The “hERG current change (%, negative = inhibition) at 10uM” value of the first is higher: 9.31% for the first, -7.23% for the second.

First: COc1cccc(C(=O)C2CCCN(C(=O)c3ccccn3)C2)c1 (centres unmarked)
Second: COc1ccc(-c2noc(C3CCCN(C(=O)Nc4ccccc4)C3)n2)cc1 (centres unmarked)
The “hERG current change (%, negative = inhibition) at 10uM” value of the first is higher: 3.77% for the first, -36.4% for the second.

First: Cn1c(SCc2ccc3c(c2)OCO3)nnc1-c1ccccc1
Second: COc1ccc(-c2[nH]c(-c3ccc4c(c3)OCO4)nc2-c2ccccc2)cc1
The “hERG current change (%, negative = inhibition) at 10uM” value of the first is lower: -8.13% for the first, 1.88% for the second.

Compared with `Cc1ccc(NC(=O)COC(=O)c2csc3c2CCC(C)C3)cc1S(=O)(=O)N1CCCCC1` (centres unmarked), `O=C(Nc1ccc(O)cc1)c1cc(S(=O)(=O)N2CCCC2)ccc1Cl` is lower in “hERG current change (%, negative = inhibition) at 10uM” value: 8.98% for the first, -14.9% for the second.

First: CN(CCO)C1=CC(=O)CC(C)(C)C1
Second: CC12CCC(C/C1=N/O)C2(C)C (centres unmarked)
The “hERG current change (%, negative = inhibition) at 10uM” value of the first is higher: 13.8% for the first, 6.85% for the second.

First: COC(=O)c1cnn(-c2cc(Oc3ccccc3)ncn2)c1N
Second: CN(c1ccccc1C(=O)Nc1cccnc1)S(C)(=O)=O
The “hERG current change (%, negative = inhibition) at 10uM” value of the first is lower: -10.4% for the first, 0.564% for the second.

Compared with `O=C(NNc1ccccc1C(F)(F)F)c1cccs1`, `Cc1c(C(=O)NCc2cccs2)oc2ccccc12` is lower in “hERG current change (%, negative = inhibition) at 10uM” value: -1.2% for the first, -18% for the second.

First: CS(=O)(=O)N(CC(=O)Nc1ccc(F)cc1)C1CCCCC1
Second: CC1CCC(NC(=O)c2cccc(S(=O)(=O)N3CCN(c4ccc(F)cc4)CC3)c2)CC1 (centres unmarked)
The “hERG current change (%, negative = inhibition) at 10uM” value of the first is higher: 12.6% for the first, -16.9% for the second.

Going from `Cc1ccc(OCc2nnc(SCC(=O)N3CCc4ccccc43)n2C)cc1` to `COc1ccc(N2CCN(CCC(=O)c3ccc4ccccc4c3)CC2)cc1`, the “hERG current change (%, negative = inhibition) at 10uM” value falls from 16.4% to -11.2%.

First: COc1ccc(CCC(=O)OCC(=O)Nc2ccc(C)c(S(=O)(=O)N(C)C)c2)cc1
Second: COc1ccc(CCNC(C)CCc2ccc(OC)cc2)cc1 (centres unmarked)
The “hERG current change (%, negative = inhibition) at 10uM” value of the first is lower: -18.8% for the first, -13% for the second.

Going from `Cc1nc(C)c(C(=O)NNC(=O)Nc2ccc(Cl)cc2)s1` to `Cc1cc(NC(=O)c2cc(-c3ccc(C)c(C)c3)nc3ccccc23)no1`, the “hERG current change (%, negative = inhibition) at 10uM” value falls from 17.1% to -1.48%.

Going from `CCNC(=S)N/N=C(\C)c1ccco1` to `C=CCSc1ncccc1C(=O)O`, the “hERG current change (%, negative = inhibition) at 10uM” value falls from 24.5% to 11.7%.

First: CCCN(CCC)CCCNC(=O)c1cc2c(-c3ccc(OC)c(OC)c3)nn(C)c2s1
Second: CCCc1c(O)nc(SCCN(CC)CC)n(C(=O)c2ccccc2)c1=O.Cl
The “hERG current change (%, negative = inhibition) at 10uM” value of the first is higher: -6.94% for the first, -58% for the second.

First: CC(C)(C)C(=O)Nc1cccc2[nH]ncc12
Second: CC(=O)Oc1c(Sc2ccccc2[N+](=O)[O-])c(C)nn1C(C)(C)C
The “hERG current change (%, negative = inhibition) at 10uM” value of the first is higher: 2.87% for the first, 0.394% for the second.

First: O=C(c1c[nH]c(C(=O)C(Cl)(Cl)Cl)c1)c1ccccc1Br
Second: O=C(O)/C=C/c1cnc2ccccc2c1
The “hERG current change (%, negative = inhibition) at 10uM” value of the first is lower: 7.57% for the first, 19.1% for the second.

Compared with `CSc1nc(Cl)cc(=O)[nH]1`, `NNC(=O)/C=C/c1ccc(Cl)cc1Cl` is higher in “hERG current change (%, negative = inhibition) at 10uM” value: 9.66% for the first, 10.3% for the second.

First: Cc1ccc(S(=O)(=O)Cn2nnnc2C(CC(C)C)N2CCN(C3CCCC3)CC2)cc1.Cl (centres unmarked)
Second: CCN1c2ccc(S(=O)(=O)N3CCOCC3)cc2N(Cc2ccc(OC)cc2)C1C (centres unmarked)
The “hERG current change (%, negative = inhibition) at 10uM” value of the first is lower: -33.7% for the first, 16.5% for the second.

Compared with `CCC(=O)NC(Nc1sc2c(c1C(=O)OC)CCCC2)(C(F)(F)F)C(F)(F)F`, `O=C(c1cc2c(s1)CCCCCC2)N1CCC2(CC1)OCCO2` is lower in “hERG current change (%, negative = inhibition) at 10uM” value: 6.74% for the first, -5.1% for the second.

Going from `CCOC(=O)C1=C(C)N(CC(C)C)C(=O)C1` to `CC(C)n1c(SCC(N)=O)nc2c1c(=O)n(C)c(=O)n2C`, the “hERG current change (%, negative = inhibition) at 10uM” value falls from 11.4% to 2.93%.

First: Cc1ccccc1NC(=O)c1ccc(COc2ccc3c(C)cc(=O)oc3c2)cc1
Second: CCOC(=O)c1ccc(-c2ccc3[nH]c4ccccc4c(=O)c3c2)cc1F
The “hERG current change (%, negative = inhibition) at 10uM” value of the first is higher: 17.7% for the first, 13% for the second.

First: Cc1ccc(SCC(=O)NCc2ccc(F)cc2)cc1
Second: Cc1cccc(NC2=NCC(=O)N2Cc2ccccc2)c1
The “hERG current change (%, negative = inhibition) at 10uM” value of the first is lower: -1.72% for the first, 11.9% for the second.

Compared with `Fc1ccccc1CSc1ncnc2c1oc1ccccc12`, `O=C(O)C1C(C(=O)O)C1(c1ccccc1)c1ccccc1` (centres unmarked) is higher in “hERG current change (%, negative = inhibition) at 10uM” value: 17.9% for the first, 20.4% for the second.

Compared with `COc1ccc(F)c(C2C(C#N)=C(N)Oc3n[nH]c(C(C)(C)C)c32)c1` (centres unmarked), `Cc1cccc(N=Nc2c(C)c(C#N)c(O)[nH]c2=O)c1` is higher in “hERG current change (%, negative = inhibition) at 10uM” value: 2.53% for the first, 14.6% for the second.

Compared with `O=C(/C=C/c1ccc(-c2cccc([N+](=O)[O-])c2)o1)N1CCOCC1`, `O=C(Cn1c2ccccc2c(=O)c2ccccc21)N/N=C/c1cc([N+](=O)[O-])ccc1N1CCCCCC1` is higher in “hERG current change (%, negative = inhibition) at 10uM” value: -1.16% for the first, 8.8% for the second.

Going from `COc1cccc(/C=N/NC(=O)NC23CC4CC(CC(C4)C2)C3)c1O` to `COc1ccc(NC(=S)N(CCCN2CCOCC2)Cc2ccccn2)cc1`, the “hERG current change (%, negative = inhibition) at 10uM” value falls from -7.74% to -14.4%.

Compared with `Cc1ccc(Cl)cc1N1CCN(C(=O)c2cn(C)c(=O)c3c2c2ccccc2n3C)CC1`, `CS(=O)(=O)c1ccc(Cl)c(NC(=O)COC(=O)CCCN2C(=O)c3cccc4cccc(c34)C2=O)c1` is lower in “hERG current change (%, negative = inhibition) at 10uM” value: 3.75% for the first, -16.2% for the second.

Going from `C#CCOCCOCCOCCNc1nc(N2CCN(C(=O)[C@H](CCCCN)n3cc([C@@H](N)CC(C)C)nn3)CC2)nc(N2CCN(C(=O)[C@H](CCCCN)n3cc([C@@H](N)CC(C)C)nn3)CC2)n1.Cl` to `Cc1cccc(OCC(O)Cn2c(NCc3cccnc3)nc3c2c(=O)[nH]c(=O)n3C)c1` (centres unmarked), the “hERG current change (%, negative = inhibition) at 10uM” value falls from 4.98% to -9.46%.

`CN(c1cccc(NC(=O)c2ccc(Cl)c(S(=O)(=O)Nc3ccccc3)c2)c1)S(C)(=O)=O` was tested, and the “hERG current change (%, negative = inhibition) at 10uM” value was -9.49%.
